# Laboratory results from PubChem BioAssay (Tox21).
# “And” between values parts separate entries of the source, which are not always exact repeats. Identical values can stand only once. Inconclusive means that the source gave no clear call. Such entries were picked first, then a sample of the others. For some of these results: Where the call is inconclusive, the potency comes from a doubtful curve fit. The source made the active and inactive calls. Unless noted, the call rests on the fitted dose curve.
# Key:
# [1] = molecular target: Peroxisome proliferator-activated receptor gamma (Homo sapiens) (UniProt P37231); test: qHTS assay to identify small molecule antagonists of the peroxisome proliferator-activated receptor gamma (PPARg) signaling pathway (AID 743191); settings: HEK293H PPARg-UAS-bla, beta-lactamase ratio, antagonist, 17 h; ratio activity, negative = inhibition: at 62.6 µM (top of the series) unless noted; further: nearly all actives have a fitted effect of over 30% in size; further: potency means the concentration at half of the fitted maximal effect; on ratio activity, negative = inhibition: on the % scale 0 is the no-effect control and ±100 the full control effect
# Method in brief: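 GeneBLAzer PPARg UAS-bla HEK293H cells, 5 h post-plating, exposed to compounds 17 h at 37C. LiveBLAzer B/G FRET substrate added for 1 h at room temperature; beta-lactamase reporter read by fluorescence intensity.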
# [2] = qHTS assay for small molecule agonists of the antioxidant response element (ARE) signaling pathway (AID 743202; active means well fitted activation curve with a large enough effect in the signal ratio in the repeat runs, not every such curve was filed as active; inconclusive means weak or mixed curves, or effect the other way; inactive means no such curve, though single readings can be large or run the other way; the % refers to the signal ratio; further: potency means the concentration at half of the fitted maximal effect; on activation: on the % scale 0 is the no-effect control and ±100 the full control effect); settings: HepG2 ARE-bla reporter, beta-lactamase FRET, 16 h; activation: at 73.3 µM (top of the series) unless noted
# Method in brief: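 Agonist mode reporter screen: HepG2 cells with ARE-controlled beta-lactamase are incubated with test compounds for 16 h at 37 C, and beta-lactamase activity is measured as fluorescence of cleaved B/G FRET substrate.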
# [3] = molecular target: Peroxisome proliferator-activated receptor delta (Homo sapiens) (UniProt Q03181); test: qHTS assay to identify small molecule agonists of the peroxisome proliferator-activated receptor delta (PPARd) signaling pathway (AID 743212); settings: HEK293H PPARd-UAS-bla, beta-lactamase FRET ratio, 17 h; activation: at 62.6 µM (top of the series) unless noted; further: potency means the concentration at half of the fitted maximal effect
# Method in brief: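 Quantitative high-throughput agonist screen in a HEK293H beta-lactamase reporter line under UAS control. Compounds in DMSO, at 37 C. Fluorescence read after 2 h with FRET substrate at room temperature.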
# [4] = molecular target: Peroxisome proliferator-activated receptor delta (Homo sapiens) (UniProt Q03181); test: qHTS assay to identify small molecule antagonists of the peroxisome proliferator-activated receptor delta (PPARd) signaling pathway (AID 743215; active means well fitted inhibition curve with a large enough effect in the signal ratio in the repeat runs, not every such curve was filed as active; inconclusive means weak or mixed curves, or effect the other way; inactive means no such curve, though single readings can be large or run the other way; the % refers to the signal ratio;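 further: cells stimulated with agonist L165041 at 300 nM final during compound exposure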; further: potency means the concentration at half of the fitted maximal effect); settings: HEK293H PPARd-UAS-bla, beta-lactamase FRET ratio, antagonist, 17 h; ratio activity, negative = inhibition: at 62 µM (top of the series) unless noted
# Method in brief: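 HEK293H UAS-bla, PPARd; agonist L165041 300 nM final with cpd in DMSO; 37 C 17 h; FRET substrate, RT 2 h; fluorescence intensity.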
# [5] = qHTS assay to identify small molecule agonists of the farnesoid-X-receptor (FXR) signaling pathway - cell viability counter screen (AID 743218; active means well fitted curve in the direction sought with a large enough effect in the repeat runs; inconclusive means weak or mixed curves; inactive means no such curve, though single readings can be large; an effect the other way counts as inactive or inconclusive; further: potency means the concentration at half of the fitted maximal effect; nearly all actives have a fitted effect of over 45% in size); settings: FXR-bla HEK293T viability, CellTiter-Glo luminescence, 16 h; viability change, negative = cytotoxic: at 62.6 µM (top of the series) unless noted
# Method in brief: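 Parallel cytotoxicity test: compound-treated (16 h, 37 C) HEK 293T FXR-bla reporter cells were lysed with CellTiter-Glo and luminescence recorded.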
# [6] = qHTS assay for small molecule activators of the heat shock response signaling pathway (AID 743210; active means well fitted activation curve with a large enough effect in the signal ratio in the repeat runs, with a control signal flat, not every such curve was filed as active; inconclusive means weak or mixed curves; the % refers to the signal ratio; further: potency means the concentration at half of the fitted maximal effect); settings: HeLa HSE-bla reporter, beta-lactamase ratio, 5 h; activation: at 62.6 µM (top of the series)
# Method in brief: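 Quantitative high-throughput format using an engineered HeLa line in which heat shock response elements drive beta-lactamase; after 5 h with compound, cells received a B/G FRET substrate and fluorescence was read.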
# [7] = qHTS assay to identify small molecule antagonists of the peroxisome proliferator-activated receptor delta (PPARd) signaling pathway - cell viability counter screen (AID 743213; active means well fitted curve in the direction sought with a large enough effect in the repeat runs; inconclusive means weak or mixed curves; inactive means no such curve, though single readings can be large; an effect the other way counts as inactive or inconclusive; further: potency means the concentration at half of the fitted maximal effect; nearly all actives have a fitted effect of over 50% in size); settings: PPARd-bla HEK293H viability, CellTiter-Glo luminescence, 17 h; viability change, negative = cytotoxic: at 62 µM (top of the series) unless noted
# Method in brief: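 In this counter screen, HEK293H cells carrying a UAS-beta-lactamase reporter are co-treated with test compounds and 300 nM L165041 (final) for 17 h at 37 C; cell viability is quantified by CellTiter-Glo luminescence.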
# [8] = qHTS assay to identify small molecule antagonists of the vitamin D receptor (VDR) signaling pathway - cell viability counter screen (AID 743225; active means well fitted curve in the direction sought with a large enough effect in the repeat runs; inconclusive means weak or mixed curves; inactive means no such curve, though single readings can be large; an effect the other way counts as inactive or inconclusive; further: nearly all actives have a fitted effect of over 50% in size; further: potency means the concentration at half of the fitted maximal effect; on viability change, negative = cytotoxic: on the % scale 0 is the no-effect control and ±100 the full control effect); settings: VDR-bla HEK293T viability, CellTiter-Glo luminescence, 16 h
# Method in brief: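 Luminescent cell viability (CellTiter-Glo) in VDR-bla HEK 293T cells after 16 h compound exposure at 37C in the presence of 3 nM final 1-alpha,25-dihydroxy vitamin D3.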
# [9] = molecular target: Bile acid receptor (Homo sapiens) (UniProt Q96RI1); test: qHTS assay to identify small molecule antagonists of the farnesoid-X-receptor (FXR) signaling pathway (AID 743217; active means well fitted inhibition curve with a large enough effect in the signal ratio in the repeat runs, not every such curve was filed as active; inconclusive means weak or mixed curves, or effect the other way; inactive means no such curve, though single readings can be large or run the other way; the % refers to the signal ratio; further: potency means the concentration at half of the fitted maximal effect); settings: HEK293T FXR-UAS-bla, beta-lactamase ratio, CDCA-stimulated, 16 h; activity change, negative = inhibition: at 62.6 µM (top of the series) unless noted
# Method in brief: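 GeneBLAzer FXR-UAS-bla HEK 293T, CDCA-stimulated (50 uM final). Compound treatment 16 h, 37 °C. Detection: beta-lactamase cleavage of B/G FRET substrate, fluorescence.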
# [10] = molecular target: Bile acid receptor (Homo sapiens) (UniProt Q96RI1); test: qHTS assay to identify small molecule agonists of the farnesoid-X-receptor (FXR) signaling pathway (AID 743220; active means well fitted activation curve with a large enough effect in the signal ratio in the repeat runs, not every such curve was filed as active; inconclusive means weak or mixed curves, or effect the other way; the % refers to the signal ratio; further: on the % scale 0 is the no-effect control and ±100 the full control effect); settings: HEK293T FXR-UAS-bla, beta-lactamase FRET ratio, 16 h; activation: at 62.6 µM (top of the series) unless noted
# Method in brief: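 Beta-lactamase reporter under UAS control in GeneBLAzer FXR HEK 293T cells (5000/well) measured with LiveBLAzer FRET substrate after 2 h at room temperature. Compound exposure lasted 16 h at 37C.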
# [11] = qHTS assay to identify small molecule antagonists of the farnesoid-X-receptor (FXR) signaling pathway - cell viability counter screen (AID 743221; active means well fitted cell-killing curve with a large enough effect in the repeat runs, not every such curve was filed as active; inconclusive means weak or mixed curves, or effect the other way; inactive means no such curve, though single readings can be large or run the other way; further: potency means the concentration at half of the fitted maximal effect; nearly all actives have a fitted effect of over 50% in size); settings: FXR-bla HEK293T viability, CellTiter-Glo luminescence, 16 h; activity change, negative = cytotoxicity: at 62.6 µM (top of the series) unless noted
# Method in brief: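 In GeneBLAzer FXR-UAS-bla HEK 293T cells stimulated with 50 uM chenodeoxycholic acid (final), compounds acted for 16 h at 37 C. Viability was assessed afterwards by CellTiter-Glo luminescence.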
# [12] = molecular target: Vitamin D3 receptor (Homo sapiens) (UniProt P11473); test: qHTS assay to identify small molecule antagonists of the vitamin D receptor (VDR) signaling pathway (AID 743223; active means well fitted inhibition curve with a large enough effect in the signal ratio in the repeat runs, not every such curve was filed as active; inconclusive means weak or mixed curves, or effect the other way; inactive means no such curve, though single readings can be large or run the other way; the % refers to the signal ratio; further: potency means the concentration at half of the fitted maximal effect); settings: VDR-UAS-bla HEK293T, beta-lactamase FRET ratio, 16 h; activity change, negative = inhibition: at 61 µM (top of the series) unless noted
# Method in brief: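 Agonist 1alpha,25-dihydroxyvitamin D3 (3 nM in well) was added with each compound to VDR-bla cells preincubated 4 h. Cells stood 16 h at 37C, then FRET substrate 2 h at room temperature; fluorescence intensity recorded.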
# [13] = qHTS assay to identify small molecule agonists of the vitamin D receptor (VDR) signaling pathway - cell viability counter screen (AID 743224; active means well fitted curve in the direction sought with a large enough effect in the repeat runs; inconclusive means weak or mixed curves; inactive means no such curve, though single readings can be large; an effect the other way counts as inactive or inconclusive; further: potency means the concentration at half of the fitted maximal effect; nearly all actives have a fitted effect of over 50% in size); settings: VDR-bla HEK293T viability, CellTiter-Glo luminescence, 16 h; series mostly up to 62.6 µM
# Method in brief: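 Plated VDR-bla cells (4 h, 37C) received compound, incubated 16 h, then LiveBLAzer substrate 2 h RT; CellTiter-Glo added afterwards, luminescence read at 30 min.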
# [14] = qHTS assay for small molecule activators of the heat shock response signaling pathway - cell viability counter screen (AID 743209; active means well fitted curve in the direction sought with a large enough effect in the repeat runs; inconclusive means weak or mixed curves; inactive means no such curve, though single readings can be large; an effect the other way counts as inactive or inconclusive); settings: HSE-bla HeLa viability, CellTiter-Glo luminescence, 5 h; activity change, negative = cytotoxicity: at 62.6 µM (top of the series) unless noted
# Method in brief: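 Readout: CellTiter-Glo luminescence, 30 min at room temperature. System: HSE-bla HeLa cells, 1500/well, plated overnight. Treatment: compounds in DMSO, 5 h at 37 C.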
# [15] = viability change, negative = cytotoxic: at 61 µM (top of the series) unless noted
# Tags describe the fitted curve by direction and shape or compound fluorescence and quenching.
# UniProt Q03181, sequence (Q03181 whole entry, looked up): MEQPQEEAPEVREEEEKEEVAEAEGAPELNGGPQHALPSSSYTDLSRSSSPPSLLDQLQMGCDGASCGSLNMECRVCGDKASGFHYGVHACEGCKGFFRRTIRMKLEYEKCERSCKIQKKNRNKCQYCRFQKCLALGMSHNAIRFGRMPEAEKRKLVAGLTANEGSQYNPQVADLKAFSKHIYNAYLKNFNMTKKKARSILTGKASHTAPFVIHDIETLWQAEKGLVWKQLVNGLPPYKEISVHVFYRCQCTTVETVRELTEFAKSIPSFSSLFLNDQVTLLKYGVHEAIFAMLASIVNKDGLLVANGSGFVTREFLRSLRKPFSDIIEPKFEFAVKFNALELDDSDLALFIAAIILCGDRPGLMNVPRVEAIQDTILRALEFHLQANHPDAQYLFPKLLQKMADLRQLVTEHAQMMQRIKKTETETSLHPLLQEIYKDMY
# UniProt P37231, sequence (P37231 whole entry, looked up): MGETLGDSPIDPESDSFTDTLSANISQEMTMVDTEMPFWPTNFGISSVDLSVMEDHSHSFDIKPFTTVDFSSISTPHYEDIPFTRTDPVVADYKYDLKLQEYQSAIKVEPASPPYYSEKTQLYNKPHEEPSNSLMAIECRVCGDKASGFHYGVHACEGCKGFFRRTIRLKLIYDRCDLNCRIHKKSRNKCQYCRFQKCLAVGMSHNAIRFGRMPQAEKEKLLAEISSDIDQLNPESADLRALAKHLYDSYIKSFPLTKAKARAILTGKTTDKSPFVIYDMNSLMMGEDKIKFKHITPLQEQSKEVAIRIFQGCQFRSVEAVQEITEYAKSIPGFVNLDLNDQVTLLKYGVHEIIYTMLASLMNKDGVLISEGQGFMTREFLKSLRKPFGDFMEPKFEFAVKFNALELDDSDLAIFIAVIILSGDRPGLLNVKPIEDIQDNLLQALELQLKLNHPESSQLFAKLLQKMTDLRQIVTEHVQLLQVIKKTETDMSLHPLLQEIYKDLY
# UniProt P11473, sequence (P11473 whole entry, looked up): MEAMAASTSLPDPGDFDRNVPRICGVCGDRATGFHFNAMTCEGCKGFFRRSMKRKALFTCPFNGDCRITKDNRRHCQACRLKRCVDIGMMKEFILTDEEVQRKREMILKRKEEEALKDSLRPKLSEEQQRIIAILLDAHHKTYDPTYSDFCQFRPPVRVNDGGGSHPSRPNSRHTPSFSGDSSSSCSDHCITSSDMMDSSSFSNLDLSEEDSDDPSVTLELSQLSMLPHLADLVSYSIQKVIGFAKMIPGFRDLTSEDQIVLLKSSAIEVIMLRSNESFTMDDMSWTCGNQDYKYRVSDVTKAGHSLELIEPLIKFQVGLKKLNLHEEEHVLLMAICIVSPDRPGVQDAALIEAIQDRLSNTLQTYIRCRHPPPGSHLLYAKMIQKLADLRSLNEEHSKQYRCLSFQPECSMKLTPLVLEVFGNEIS
# UniProt Q96RI1, sequence (Q96RI1 whole entry, looked up): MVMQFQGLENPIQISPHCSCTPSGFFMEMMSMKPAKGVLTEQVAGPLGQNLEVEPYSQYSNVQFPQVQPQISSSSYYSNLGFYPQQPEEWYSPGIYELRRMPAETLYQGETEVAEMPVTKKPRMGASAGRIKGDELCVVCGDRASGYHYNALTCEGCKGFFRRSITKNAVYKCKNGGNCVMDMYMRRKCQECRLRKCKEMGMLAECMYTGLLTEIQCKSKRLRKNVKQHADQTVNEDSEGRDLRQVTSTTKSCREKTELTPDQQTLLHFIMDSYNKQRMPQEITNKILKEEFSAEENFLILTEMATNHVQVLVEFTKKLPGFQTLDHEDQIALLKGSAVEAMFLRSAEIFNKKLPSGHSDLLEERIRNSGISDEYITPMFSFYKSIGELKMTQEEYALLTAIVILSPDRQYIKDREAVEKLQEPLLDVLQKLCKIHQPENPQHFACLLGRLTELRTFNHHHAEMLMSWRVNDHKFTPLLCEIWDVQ
smiles,measurement,setting,value
CCOP(=S)(OCC)Oc1ncn(-c2ccccc2)n1,Potency,[1],inactive
same,activation,[2],inconclusive: 13.4%
same,Potency,[3],"inconclusive: 7.76 µM [rising, full curve, poor fit]"
same,Potency,[4],inconclusive: 21.9 µM [fluorescent]
same,Potency,[5],"inconclusive: 2.45 µM [cytotoxic, partial curve, poor fit]"
C[C@]12CC[C@H]3[C@@H](CC[C@@]45O[C@@H]4C(O)=C(C#N)C[C@]35C)[C@@H]1CC[C@@H]2O,Potency,[1],"inconclusive: 27.5 µM [fluorescent, partial curve, poor fit] and inconclusive: 10.6 µM [fluorescent, partial curve, poor fit]"
same,Potency,[2],active: 30.6 µM and active: 23.7 µM
same,Potency,[6],inconclusive: 36.2 µM [activator]
same,Potency,[3],"inconclusive: 1.1 µM [rising, full curve, poor fit]"
same,Potency,[7],"inconclusive: 0.944 µM [cytotoxic, partial curve, poor fit]"
same,"viability change, negative = cytotoxic",[8]; at 61 µM (top of the series),inactive: -0.402%
same,"viability change, negative = cytotoxic",[8]; [15],inconclusive: -15.2% [cytotoxic]
Cc1cc(Cl)ccc1N,Potency,[1],inactive
same,activation,[2],inconclusive: -12% [at 94.8 µM]
same,Potency,[6],inconclusive: 59.3 µM [activator]
same,Potency,[7],"inconclusive: 6.76 µM [cytotoxic, single point]"
same,Potency,[4],inactive
same,"viability change, negative = cytotoxic",[8]; [15],inconclusive: 0.823% [cytotoxic]
CCC(OC(C)=O)C(CC(C)NC)(c1ccccc1)c1ccccc1 (stereo not drawn),Potency,[1],"inconclusive: 77.6 µM [rising, partial curve, poor fit]"
same,Potency,[2],"inconclusive: 15.5 µM [falling, full curve]"
same,Potency,[3],"inconclusive: 34.7 µM [rising, full curve, poor fit]"
same,Potency,[7],active: 30.9 µM
same,Potency,[4],"inconclusive: 34.7 µM [rising, partial curve, poor fit]"
same,Potency,[9],"inconclusive: 69.2 µM [inhibitor, single point]"
same,Potency,[10],inactive
same,Potency,[11],active: 69.2 µM
same,Potency,[12],inconclusive: 55.4 µM [inhibitor]
same,Potency,[13],"inconclusive: 19.5 µM [cytotoxic, full curve]"
same,Potency,[8]; [15],active: 44 µM
O=C(O)C(Cl)Br (stereo not drawn),"ratio activity, negative = inhibition",[1],inconclusive: -5.68% [at 81.1 µM]
same,Potency,[2],active: 4.91 µM
same,Potency,[14],"inconclusive: 0.7 µM [rising, partial curve, poor fit]"
same,"activity change, negative = inhibition",[12],inconclusive: -2.67% [at 78.8 µM]
same,Potency,[8]; [15],"inconclusive: 22.1 µM [rising, single point]"
CN1C2CCC(C)(C)C1CC(OC(=O)C(O)(c1cccs1)c1cccs1)C2 (stereo not drawn),"ratio activity, negative = inhibition",[1],inconclusive: 7.06%
same,Potency,[2],inactive
same,Potency,[14],"inconclusive: 0.266 µM [cytotoxic, full curve, poor fit]"
same,Potency,[6],inactive
same,Potency,[3],inactive
same,Potency,[4],inactive
same,Potency,[11],"inconclusive: 13.3 µM [falling, full curve]"
same,Potency,[12],inactive
same,Potency,[8]; [15],inactive
